Measured values taken from the RNAGym collection of RNA variant scans (doi:10.1073/pnas.2313332121).
Variants at the background level are over-represented here.

B1: TPR 5TU (parent)
chain: GGAUCUUCUCGAUCUAACAAAAAAGACAAAUCUGCCACAAAGCUUGAGAGCAUCUUCGGAUGCAGAGGCGGCAGCCUUCGGUGGCGCGAUAGCGCCAACGUUCUCAACUAUGACACGCAAAACGCGUGCUCCGUUGAAUGGAGUUUAUCAUG

Variants of: B1
Assay: polymerase ribozyme fitness, log enrichment relative to wild type (log ratio); higher = more active; in vitro selection for triplet polymerase activity
In short: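 Both subunits of a heterodimeric triplet polymerase ribozyme were given their own mutant library, built by PCR and transcribed. Each library was annealed with a biotinylated primer, the partner subunit and triplets, incubated frozen at −7 °C, and its extended constructs gel-excised, captured on streptavidin beads and amplified by RT-PCR, all in one round done in triplicate. Fitness is the logarithm of genotype enrichment relative to wild-type enrichment, with replicates averaged by inverse-variance weighting. That logarithm is base 2, and Illumina-sequenced genotypes needed ≥10 input reads and ≥1 read per output.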

Row | Variant | polymerase ribozyme fitness (log ratio)
1 | A41U G80U U101C | -4.09
2 | A41U G81A C95G C114G | ≤ -4.2
3 | A41U G86U C125U U127G | -4.16
4 | A41U G88A | ≤ -4.2
5 | A41U G88A C95G A106C A120G | ≤ -4.2
6 | A41U G88U C96U A107C A121U U139G | ≤ -4.2
7 | A41U G88U G126C | ≤ -4.2
8 | A41U G112C A120G U146C | ≤ -4.2
9 | A41U G117C | -0.836
10 | A41U G136A | 0.0389
11 | A41U U44A A47C C95U C116A | ≤ -4.2
12 | A41U U44A A49C G81U C95U A107G G128A | ≤ -4.2
13 | A41U U44A C54G A73G C99A C125A | ≤ -4.2
14 | A41U U44A G65C C85G G143U | ≤ -4.2
15 | A41U U45G C69U C108G C118G | ≤ -4.2
16 | A41U U90G | ≤ -4.2
17 | A41U U139C U148G | ≤ -4.2
18 | A41U U144G | 0.164
19 | A41U U145A | -0.141
20 | G42A A47C C85G C96G C116A A147U | ≤ -4.2
21 | G42A A47C U55A C85U | ≤ -4.2

Row | Variant | polymerase ribozyme fitness (log ratio)
22 | G42A A47C U77G G92U | ≤ -4.2
23 | G42A A49C G59A C93U C103G C116G A138C | ≤ -4.2
24 | G42A A49G G86A G128A U134A G141C U145C | ≤ -4.2
25 | G42A A49U C57A C96U A142G | ≤ -4.2
26 | G42A A52C U55G U56A G84C C87A C105G C123G A150G | ≤ -4.2
27 | G42A A52G C85A C96A G128U A150C | ≤ -4.2
28 | G42A A52G G59A A60U U144C | ≤ -4.2
29 | G42A A52G G70C G141C | ≤ -4.2
30 | G42A A60G C93U A106G C116U | ≤ -4.2
31 | G42A A97G U101G C103G A110G G140U | ≤ -4.2
32 | G42A A142C | -4.17
33 | G42A A150C | ≤ -4.2
34 | G42A A150G | ≤ -4.2
35 | G42A C43G A91C C116U U146C | ≤ -4.2
36 | G42A C51U A64C G80A U127A | ≤ -4.2
37 | G42A C57A C76U C79A C85A | ≤ -4.2
38 | G42A C57U G58U C95U C105G G117C U151C | ≤ -4.2
39 | G42A C63A U82C C95G C103U C114G C118U | ≤ -4.2
40 | G42A C63U G68A G80A C85G G126A | ≤ -4.2
41 | G42A C63U G70U G143U | ≤ -4.2
42 | G42A C75G C96G | ≤ -4.2

Row | Variant | polymerase ribozyme fitness (log ratio)
43 | G42A C75U C76G U111G U130A G133U | ≤ -4.2
44 | G42A C85G | ≤ -4.2
45 | G42A C85G G88A G94C C132G A150C | ≤ -4.2
46 | G42A C87A A115U | ≤ -4.2
47 | G42A C87U A142U | ≤ -4.2
48 | G42A C87U G100U A110C A115C A120G U134A | ≤ -4.2
49 | G42A C93U C116A A150G | ≤ -4.2
50 | G42A C96A A122G A138G U145G | ≤ -4.2
51 | G42A G48A A97G A138U | ≤ -4.2
52 | G42A G48C G70A C93A C105A A107U | ≤ -4.2
53 | G42A G48C U145G | ≤ -4.2
54 | G42A G48U G58U C75G G83A U104G | ≤ -4.2
55 | G42A G50A C57U G67C C79U G83U C93U | ≤ -4.2
56 | G42A G50A G81U C93G A97G A110G A115U G124C | ≤ -4.2
57 | G42A G50A U90G C116U | ≤ -4.2
58 | G42A G58C G67U G86A C108G | ≤ -4.2
59 | G42A G59A G74U C96G A137G | ≤ -4.2
60 | G42A G62A A89C C93G C105U G126A U148C | ≤ -4.2
61 | G42A G65U G80C | ≤ -4.2
62 | G42A G67U C99U C114U C118U G126U G143C | ≤ -4.2
63 | G42A G84A A97G | ≤ -4.2

Row | Variant | polymerase ribozyme fitness (log ratio)
64 | G42A G86A U101G C116G | ≤ -4.2
65 | G42A G86U | ≤ -4.2
66 | G42A G86U G141A | ≤ -4.2
67 | G42A G88A G124A C125U C129A | ≤ -4.2
68 | G42A G94A C95A A121U | ≤ -4.2
69 | G42A G94U | ≤ -4.2
70 | G42A G94U C118U G141A A150U | ≤ -4.2
71 | G42A G100A U134G | ≤ -4.2
72 | G42A G140A | ≤ -4.2
73 | G42A U44A A60U A66G G67A A97U A142U | ≤ -4.2
74 | G42A U44A G59U U104G A122G G126A | ≤ -4.2
75 | G42A U44A G62A G88A C149G | ≤ -4.2
76 | G42A U44A G94U C99A G133C | ≤ -4.2
77 | G42A U44G U55A G88C A89G C99G G133U A138C A147U | ≤ -4.2
78 | G42A U45A A47U G50A A64G A89U C93G G136C | ≤ -4.2
79 | G42A U45A C85U G94A A97C | ≤ -4.2
80 | G42A U53A C54A C57G U102C C103G C118G | ≤ -4.2
81 | G42A U53A C96U A97C C103A A110U G133C | ≤ -4.2
82 | G42A U53A G65C G70A C87G U146A | ≤ -4.2
83 | G42A U53A U77G A91U A115G U135G | ≤ -4.2
